Laboratory results: PubChem BioAssay AID504332 (National Center for Advancing Translational Sciences (NCATS), 2011)
Among all 350,000 compounds or so, about 31,000 (8.9%) were called active. The inconclusive results got no clear call from the source; some entries with a clear call stand among them for comparison. The call rests on the fitted dose curve; in most records, active means well fitted inhibition curve with a large enough effect; inconclusive means small, poorly fitted or top-dose-only effect; inactive means no such curve, though single readings can be large or run the other way. Where the call is inconclusive, the potency comes from a doubtful curve fit.

target: Histone-lysine N-methyltransferase EHMT2 (Homo sapiens) (UniProt Q96KQ7); experiment: qHTS Assay for Inhibitors of Histone Lysine Methyltransferase G9a; details: G9a H3K9 monomethylation, AlphaScreen, 2 h; activity, negative = inhibition: at 59 µM (top of the series) unless noted; further: nearly all actives have a fitted effect of over 75% in size
Summary of the method: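 Step 1: enzyme (final 20 nM) with compound, 15 min RT. Step 2: substrate peptide 500 nM and SAM 20 uM, 2 h RT. Step 3: anti-H3K9me1 antibody and AlphaScreen beads, 10 min, then plate read.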
On the % scale 0 is the no-effect control and ±100 the full control effect; potency means the concentration at half of the fitted maximal effect; tags describe the fitted curve by direction and shape.

Chain of UniProt Q96KQ7 (Q96KQ7 whole entry, looked up): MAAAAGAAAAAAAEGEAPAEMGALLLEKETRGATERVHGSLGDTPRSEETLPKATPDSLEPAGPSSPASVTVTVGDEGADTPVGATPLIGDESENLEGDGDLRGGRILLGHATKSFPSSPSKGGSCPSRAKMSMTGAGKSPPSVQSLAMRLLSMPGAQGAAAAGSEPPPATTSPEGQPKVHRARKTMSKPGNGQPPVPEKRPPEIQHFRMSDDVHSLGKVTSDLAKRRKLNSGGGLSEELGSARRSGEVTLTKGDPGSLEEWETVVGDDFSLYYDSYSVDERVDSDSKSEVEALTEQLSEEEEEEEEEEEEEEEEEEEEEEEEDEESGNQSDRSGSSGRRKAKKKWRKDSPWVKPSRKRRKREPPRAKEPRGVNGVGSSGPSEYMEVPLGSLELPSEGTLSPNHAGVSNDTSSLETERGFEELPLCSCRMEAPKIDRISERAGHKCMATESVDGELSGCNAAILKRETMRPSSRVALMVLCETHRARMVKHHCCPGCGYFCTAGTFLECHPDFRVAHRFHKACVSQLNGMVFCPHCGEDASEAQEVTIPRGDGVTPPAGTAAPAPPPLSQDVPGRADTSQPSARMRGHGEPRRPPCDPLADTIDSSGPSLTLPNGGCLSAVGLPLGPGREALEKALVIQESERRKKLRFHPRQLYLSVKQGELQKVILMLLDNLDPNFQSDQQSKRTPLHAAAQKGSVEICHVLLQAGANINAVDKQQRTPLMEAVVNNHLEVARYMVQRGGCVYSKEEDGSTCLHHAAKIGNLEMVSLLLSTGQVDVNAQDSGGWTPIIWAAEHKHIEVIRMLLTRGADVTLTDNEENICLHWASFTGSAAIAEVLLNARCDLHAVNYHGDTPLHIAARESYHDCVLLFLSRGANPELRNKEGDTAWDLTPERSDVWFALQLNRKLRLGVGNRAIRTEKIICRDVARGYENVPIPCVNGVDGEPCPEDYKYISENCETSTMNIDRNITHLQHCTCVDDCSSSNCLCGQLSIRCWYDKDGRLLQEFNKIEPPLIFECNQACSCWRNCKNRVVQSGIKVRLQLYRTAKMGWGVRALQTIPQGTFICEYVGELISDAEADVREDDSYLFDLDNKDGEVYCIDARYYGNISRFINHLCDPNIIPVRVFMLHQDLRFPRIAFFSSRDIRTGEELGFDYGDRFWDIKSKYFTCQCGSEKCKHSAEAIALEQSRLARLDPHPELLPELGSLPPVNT

Compound | Potency | activity, negative = inhibition
Cc1ccc(NC(=O)[C@H](C)NC(=O)C2CCN(C(=O)[C@@H](N)C(C)C)CC2)cc1 | inconclusive: 89.1 µM [inhibitor, single point] | 
COc1ccc(NC(=S)N2c3ccccc3CC2C)cc1OC (stereo not drawn) | active: 50.1 µM | 
COc1cc(C2C(C#N)=C(N)Oc3c2oc(CO)cc3=O)ccc1OC(C)C (stereo not drawn) | inconclusive: 39.8 µM [inhibitor, single point] | 
COc1ccc(Cn2cnc3c(NS(C)(=O)=O)c(C)c(C)cc32)cc1 | inconclusive: 11.2 µM [inhibitor, partial curve, poor fit] | 
Cc1ccc(S(=O)(=O)c2cc3c(=O)n4ccccc4nc3n(Cc3ccco3)c2=N)cc1C | inconclusive: 3.16 µM [inhibitor, single point] | 
CC(C)CN1CC2(CCN(C(=O)c3cnccn3)CC2)C1 |  | inactive: 5.85% [at 12.7 µM]
CCOc1ccc(S(=O)(=O)n2cnc3cc(C)c(C)cc32)cc1 | inconclusive: 89.1 µM [inhibitor, single point] | 
CN(CC(=O)NCc1ccc2c(c1)OCO2)S(=O)(=O)c1ccc(F)cc1 |  | inactive: 9.62% [at 102 µM]
O=C(O)c1cc(S(=O)(=O)N(Cc2ccccc2)c2cccc(C(F)(F)F)c2)ccc1Cl |  | inactive: 7.94% [at 102 µM]
Cc1ccc(OCc2nnc(SCc3ccc(C#N)cc3)n2-c2ccc(C)cc2)cc1 | inconclusive: 5.01 µM [inhibitor, single point] | 
CC[n+]1cccc(-c2nc3ccccc3s2)c1 | inconclusive: 7.08 µM [inhibitor, partial curve, poor fit] | 
CC(C)n1nc(C(=O)NC2CCCCCC2)c2ccccc2c1=O |  | inactive: -4.31% [at 12.7 µM]
CC(C)Cc1ccc(C(C)C(=O)Nc2nccs2)cc1 (stereo not drawn) | inconclusive: 2.24 µM [inhibitor, partial curve, poor fit] | 
Cc1ccc(SCc2nc(-c3ccc(C(=O)NCc4ccccc4Cl)cc3)oc2C)cc1 |  | inactive: 5%
CCCC(C(=O)NC1CCCC1)N(C(=O)Cn1nnc(-c2ccc(C)o2)n1)c1ccccc1F (stereo not drawn) |  | inactive: -11.7% [at 102 µM]
CCOC(=O)C1=C(O)/C(=C/c2cccc(OC)c2O)N=C1C |  | inconclusive: -98.8% [inhibitor]
Cc1[nH]c2ccccc2c1/C=N/NS(=O)(=O)c1ccccc1 | active: 50.1 µM | 
COc1ccc(C(=O)CCN2CCN(c3ccccc3F)CC2)cc1 | inconclusive: 20 µM [inhibitor, partial curve, poor fit] | 
CC(C)(C)c1ccc(SCCc2ccncc2)cc1 |  | inactive: 60.8% [at 102 µM]
O=C(c1ccc(F)cc1)N1CCN(Cc2ccccc2Br)CC1 | active: 10 µM | 
CCn1cc(C(=O)NCCOC)c(=O)c2cc(S(=O)(=O)N3CCOCC3)ccc21 |  | inactive: -0.38%
CCOC(=O)c1c(NC(=O)CSc2nnnn2-c2ccccc2OCC)sc2c1CC(C)(C)NC2(C)C | active: 50.1 µM | 
COc1ccc(Cl)cc1Nc1nc(-c2sc(NC(=O)C(C)(C)C)nc2C)cs1 | inconclusive: 20 µM [inhibitor, partial curve, poor fit] | 
CC1(C)CC(=O)C(CS(=O)(=O)c2ccccc2)=C(O)C1 | inconclusive: 7.94 µM [inhibitor, full curve, poor fit] | 
COc1ccc(S(=O)(=O)N(CCc2ccccc2)CC(=O)Nc2cc(C)ccc2C)cc1 |  | inactive: -0.445%

Compound | Potency | activity, negative = inhibition
O=C(CN1C(=O)/C(=C/c2ccccc2F)Sc2ccccc21)NCc1cccnc1 | inconclusive: 70.8 µM [inhibitor, partial curve] | 
Cn1c(NC(=O)COc2ccccc2)cc(=O)n(C)c1=O | inconclusive: 17.8 µM [inhibitor, single point] | 
O=C(CCSCCC(=O)NCc1ccco1)NCc1ccco1 |  | inconclusive: -136% [inhibitor]
Cc1ccc(S(=O)(=O)NCCC(=O)NCC(=O)Nc2c(C)cccc2C)cc1C |  | inactive: -6.18% [at 102 µM]
C[N+](C)(C)CCCNC(=O)c1ccc(/C=N/O)nc1 | inconclusive: 8.91 µM [inhibitor, full curve, poor fit] | 
Cc1occc1C(=O)Nc1c(F)c(F)c(F)c(F)c1F | active: 14.1 µM | 
CCc1cccc(CC)c1NC(=O)c1c(C)oc2ccc(O)c(CN3CCOCC3)c12 |  | inactive: 11.8%
COc1cc(Cl)c(C)cc1Nc1c2c(nc3ccccc13)CCC2 |  | inactive: -29.8%
O=C(CN(C(=O)CCC(=O)Nc1ccccn1)c1ccc(F)cc1)NCc1ccc(F)cc1 |  | inactive: 23.7% [at 102 µM]
CN1CCN(c2cnn(-c3ccccc3)c(=O)c2Br)CC1 | inconclusive: 44.7 µM [inhibitor, partial curve, poor fit] | 
Cc1cc(=O)n2c(C(=O)Nc3ccc(F)c(Cl)c3)c(C(=O)Nc3cccc(C)c3C)sc2n1 | active: 11.2 µM | 
CCCCCCc1cc2cc(C(N)=O)c(=N)oc2cc1O | inconclusive: 100 µM [inhibitor, single point] | 
CC1=NN(c2ccc(C)cc2)C(=O)/C1=C\C=C\c1ccccc1 | active: 4.47 µM | 
COCC(CN1CCN(C2=NS(=O)(=O)c3ccccc32)CC1)OC(=O)c1ccc(OC)cc1 (stereo not drawn) |  | inactive: 20.6% [at 102 µM]
Cc1cc(C)n(/N=C/c2cc([N+](=O)[O-])ccc2O)c(=O)c1 | inconclusive: 35.5 µM [inhibitor, partial curve] | 
COc1ccc(-n2c3c(c(=O)[nH]c2=O)C(NS(=O)(=O)c2ccc(Cl)cc2)(C(F)(F)F)C(=O)N3)cc1 (stereo not drawn) | inconclusive: 25.1 µM [inhibitor, full curve] | 
COc1ccc(Cl)cc1N(CC(=O)Nc1ccccc1C(=O)N1CCCC1)S(C)(=O)=O |  | inactive: 22% [at 102 µM]
CCCCNS(=O)(=O)c1ccc2nc(SCC(=O)Nc3sccc3C#N)[nH]c2c1 | active: 70.8 µM | 
CCOC(=O)c1cnc(SC2CC(=O)N(c3ccccc3)C2=O)nc1N (stereo not drawn) | inconclusive: 22.4 µM [inhibitor, single point] | 
Cc1ccc(OCCCN2C(=O)C(=O)c3cccc(C)c32)cc1 | inconclusive: 25.1 µM [inhibitor, single point] | 
COc1ccc(OC)c(NC(=S)N2CCCC2)c1 | inconclusive: 50.1 µM [inhibitor, single point] | 
CCOC(=O)CNS(=O)(=O)Cc1ccccc1 |  | inactive: 6.61% [at 2.33 µM]
COc1cc(-c2noc(-c3ccc(NC4CCCCC4)c([N+](=O)[O-])c3)n2)cc(OC)c1OC | inconclusive: 5.01 µM [inhibitor, single point] | 
O=C(NCCN1CCOCC1)c1ccc(NC(=O)C2COc3ccccc3O2)cc1 (stereo not drawn) | inconclusive: 25.1 µM [inhibitor, partial curve, poor fit] | 
CN(C(=O)Cc1c[nH]c2ccccc12)C(C(=O)Nc1ccc2c(c1)OCO2)c1ccccc1 (stereo not drawn) | inconclusive: 89.1 µM [inhibitor, single point] | 

Compound | Potency | activity, negative = inhibition
Cc1ccc(NC(=O)CSc2nc(-c3cccs3)cc(C(F)(F)F)n2)cc1C |  | inactive: 27.9%
Cc1csc(SCC(=O)NC(C)c2ccccc2)n1 (stereo not drawn) | inconclusive: 89.1 µM [inhibitor, partial curve, poor fit] | 
CCN(CC)c1ccc(/C=N/NC(=O)Cc2cccs2)c(O)c1 | inconclusive: 22.4 µM [inhibitor, single point] | 
Cc1ccc(OCCN2CCNCC2)c([N+](=O)[O-])c1 | active: 8.91 µM | 
Cc1c(NC(=O)c2cccnc2C(=O)O)cccc1C(=O)O | active: 8.91 µM | 
CN1CCN(c2ccc(S(=O)(=O)N3CCCCC3)cc2[N+](=O)[O-])CC1 |  | inactive: -31.2% [at 102 µM]
Cc1cccc2sc(N(Cc3cccnc3)C(=O)Cc3ccccc3)nc12 |  | inactive: 0.33%
Cc1nnc(SCc2ccccc2Cl)c2cc3occc3n12 | active: 12.6 µM | 
CCC1C(=O)Nc2nc(-c3ccccc3)c(-c3ccccc3)n2N=C1C (stereo not drawn) | inconclusive: 39.8 µM [inhibitor, single point] | 
C=CCN(c1ccccc1)S(=O)(=O)c1cccc(C(=O)NC2CCN(Cc3ccccc3)CC2)c1 | active: 50.1 µM | 
COc1ccccc1CN1CCSCC1 | inconclusive: 6.31 µM [inhibitor, single point] | 
O=C1c2ccccc2C(O)(c2ncc[nH]2)N1C1CCCCC1 (stereo not drawn) | active: 20 µM | 
CCOc1cc(/C=C(\C#N)C(=O)Nc2ccccc2C)ccc1OCc1cc(=O)n2nc(CC)sc2n1 |  | inactive: -7.24%
Cc1ccc(OCC(=O)N2CCC(N3CCCCCC3)CC2)cc1 |  | inconclusive: -139% [inhibitor]
COc1ccc(OC)c(C(=O)/C=C/c2cccnc2)c1 | active: 50.1 µM | 
O=c1c2c(-c3ccccc3)csc2ncn1/N=C/c1ccc(O)c([N+](=O)[O-])c1 | inconclusive: 79.4 µM [inhibitor, single point] | 
Cc1onc(-c2ccccc2)c1C(=O)N/N=C/c1cn(C)c2ccccc12 | inconclusive: 39.8 µM [inhibitor, partial curve, poor fit] | 
c1ccc(CNc2nnnn2-c2ccccc2)cc1 |  | inactive: 24.9%
C=CCn1c(=O)n(C2OC(CO)C(O)C2O)c2nc(N)[nH]c(=O)c21 (stereo not drawn) |  | inactive: -24.7% [at 12.7 µM]
COc1ccc(/C=C/C(=O)c2ccc([N+](=O)[O-])o2)cc1OC |  | inactive: 2.81% [at 12.7 µM]
CC1Cn2c(nnc2-c2ccc(F)cc2)S1 (stereo not drawn) | inconclusive: 50.1 µM [inhibitor, partial curve, poor fit] | 
Nn1c(Cc2cccc3ccccc23)nnc1SCc1ccccc1Cl | inconclusive: 14.1 µM [inhibitor, partial curve] | 
COc1ccc(S(=O)(=O)N/N=C\c2ccc(OC)c(COc3ccc(C)cc3[N+](=O)[O-])c2)cc1 | inconclusive: 7.94 µM [inhibitor, full curve, poor fit] | 
